Results published in PMC9569496.
Results are given in words; binding and its absence hold for the method and conditions named. In cells and extracts the contact can be indirect. Some results given as binding are weak or reduced against the parent protein; the word gives no strength.

What was measured:
Conditions in all cases: remark: other sources report otherwise
[1] = molecular target: T1, human cyclin H (human (endogenous in HFFs)), P51946; assay: co-IP; HFFs in T75 flasks infected with HCMV AD169 WT or UL97 point mutants, harvested 4-7 d.p.i.; cyclins T1, H, B1 immunoprecipitated with specific antibodies, pUL97 detected by Western blot; chicken Fc fragment as specificity control
T1 chain: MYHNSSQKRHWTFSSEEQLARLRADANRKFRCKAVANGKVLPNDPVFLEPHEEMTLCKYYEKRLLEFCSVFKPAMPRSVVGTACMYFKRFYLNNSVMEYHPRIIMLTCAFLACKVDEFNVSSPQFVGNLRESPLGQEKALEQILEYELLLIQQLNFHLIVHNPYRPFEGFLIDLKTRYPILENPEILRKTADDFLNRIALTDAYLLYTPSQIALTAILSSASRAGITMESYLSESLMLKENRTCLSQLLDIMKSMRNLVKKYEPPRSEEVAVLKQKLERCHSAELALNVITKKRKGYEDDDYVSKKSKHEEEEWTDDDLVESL

[2] = molecular target: human cyclin B1 (human (endogenous in HFFs)), P14635; assay: as above
[3] = molecular target: T1, human cyclin H (human (endogenous in …)); assay: co-IP; HFFs in T175 flasks infected with HCMV AD169 WT or ORF-UL97 deletion mutants, lysed 4 d.p.i.; cyclins H and T1 immunoprecipitated with specific antibodies, pUL97 detected by Western blot; chicken Fc fragment as negative control

Measured: binding

B1: HCMV protein kinase pUL97, strain AD169 wild type, P16788 1-707 (enzyme)
chain: MSSALRSRARSASLGTTTQGWDPPPLRRPSRARRRQWMREAAQAAAQAAVQAAQAAAAQVAQAHVDENEVVDLMADEAGGGVTTLTTLSSVSTTTVLGHATFSACVRSDVMRDGEKEDAASDKENLRRPVVPSTSSRGSAASGDGYHGLRCRETSAMWSFEYDRDGDVTSVRRALFTGGSDPSDSVSGVRGGRKRPLRPPLVSLARTPLCRRRVGGVDAVLEENDVELRAESQDSAVASGPGRIPQPLSGSSGEESATAVEADSTSHDDVHCTCSNDQIITTSIRGLTCDPRMFLRLTHPELCELSISYLLVYVPKEDDFCHKICYAVDMSDESYRLGQGSFGEVWPLDRYRVVKVARKHSETVLTVWMSGLIRTRAAGEQQQPPSLVGTGVHRGLLTATGCCLLHNVTVHRRFHTDMFHHDQWKLACIDSYRRAFCTLADAIKFLNHQCRVCHFDITPMNVLIDVNPHNPSEIVRAALCDYSLSEPYPDYNERCVAVFQETGTARRIPNCSHRLRECYHPAFRPMPLQKLLICDPHARFPVAGLRRYCMSELSALGNVLGFCLMRLLDRRGLDEVRMGTEALLFKHAGAACRALENGKLTHCSDACLLILAAQMSYGACLLGEHGAALVSHTLRFVEAKMSSCRVRAFRRFYHECSQTMLHEYVRKNVERLLATSDGLYLYNAFRRTTSIICEEDLDGDCRQLFPE
binds: all assays above
